From paper PMC8765293, “Inhibitor-Resistant Mutants Give Important Insights into Candida albicans ABC Transporter Cdr1 Substrate Specificity and Help Elucidate Efflux Pump Inhibition” (Antimicrobial Agents and Chemotherapy, 2022)
Where “and” joins values, the source holds several entries; their conditions need not be identical. Identical values can stand only once. Like-named read-outs stand apart in the source and are kept apart here.

Key:
[1] = target: T1, Cdr1-M639I ATPase activity (Candida albicans, UniProt Q5ANA3, M639I); settings: for IC50: read-out: IC50 for inhibition of Cdr1 ATPase activity, from Fig. 4
[2] = target: T2, Cdr1-A713P ATPase activity (Candida albicans, UniProt Q5ANA3, A713P); settings: for IC50: read-out: IC50 for inhibition of Cdr1 ATPase activity, from Fig. 4; for Estimated IC50 for substrate inhibition of the ATPase activity: > = only partial inhibition, none = no reduction at highest concentration
[3] = target: T3, Cdr1-A713P (FLC efflux of AD/CDR1-A713P cells) (Candida albicans, UniProt Q5ANA3, A713P); settings: for lowest MICFLC in the presence of inhibitor: FLC 5 to 640 mg/L tested
[4] = target: T4, Cdr1-G521R ATPase activity (Candida albicans, UniProt Q5ANA3, G521R); settings: for IC50: read-out: IC50 for inhibition of Cdr1 ATPase activity, from Fig. 4
[5] = target: T5, Cdr1-G521R (FLC efflux of AD/CDR1-G521R cells) (Candida albicans, UniProt Q5ANA3, G521R); settings: for lowest MICFLC in the presence of inhibitor: FLC 5 to 640 mg/L tested
[6] = target: T6, Cdr1-M639I (FLC efflux of AD/CDR1-M639I cells) (Candida albicans, UniProt Q5ANA3, M639I); settings: for lowest MICFLC in the presence of inhibitor: FLC 5 to 640 mg/L tested
[7] = target: T5, Cdr1-G521R (FLC efflux of AD/CDR1-G521R cells); experiment: cell-based
[8] = target: T6, Cdr1-M639I (FLC efflux of AD/CDR1-M639I cells); experiment: cell-based
[9] = target: T1, Cdr1-M639I ATPase activity; experiment: biochemical
[10] = target: T2, Cdr1-A713P ATPase activity; experiment: biochemical; settings: for IC50: Estimated IC50 for substrate inhibition of the ATPase activity, A713P, > = only partial inhibition, none = no reduction at highest concentration
[11] = target: T4, Cdr1-G521R ATPase activity; experiment: biochemical
[12] = target: T3, Cdr1-A713P (FLC efflux of AD/CDR1-A713P cells); experiment: cell-based
[13] = read-out: IC50 for inhibition of FLC efflux (MICFLC), live whole cells, from Fig. 3B
[14] = read-out: Ki (Cdr1 ATPase activity), Dixon plot

T1 sequence (Q5ANA3 whole entry M639I): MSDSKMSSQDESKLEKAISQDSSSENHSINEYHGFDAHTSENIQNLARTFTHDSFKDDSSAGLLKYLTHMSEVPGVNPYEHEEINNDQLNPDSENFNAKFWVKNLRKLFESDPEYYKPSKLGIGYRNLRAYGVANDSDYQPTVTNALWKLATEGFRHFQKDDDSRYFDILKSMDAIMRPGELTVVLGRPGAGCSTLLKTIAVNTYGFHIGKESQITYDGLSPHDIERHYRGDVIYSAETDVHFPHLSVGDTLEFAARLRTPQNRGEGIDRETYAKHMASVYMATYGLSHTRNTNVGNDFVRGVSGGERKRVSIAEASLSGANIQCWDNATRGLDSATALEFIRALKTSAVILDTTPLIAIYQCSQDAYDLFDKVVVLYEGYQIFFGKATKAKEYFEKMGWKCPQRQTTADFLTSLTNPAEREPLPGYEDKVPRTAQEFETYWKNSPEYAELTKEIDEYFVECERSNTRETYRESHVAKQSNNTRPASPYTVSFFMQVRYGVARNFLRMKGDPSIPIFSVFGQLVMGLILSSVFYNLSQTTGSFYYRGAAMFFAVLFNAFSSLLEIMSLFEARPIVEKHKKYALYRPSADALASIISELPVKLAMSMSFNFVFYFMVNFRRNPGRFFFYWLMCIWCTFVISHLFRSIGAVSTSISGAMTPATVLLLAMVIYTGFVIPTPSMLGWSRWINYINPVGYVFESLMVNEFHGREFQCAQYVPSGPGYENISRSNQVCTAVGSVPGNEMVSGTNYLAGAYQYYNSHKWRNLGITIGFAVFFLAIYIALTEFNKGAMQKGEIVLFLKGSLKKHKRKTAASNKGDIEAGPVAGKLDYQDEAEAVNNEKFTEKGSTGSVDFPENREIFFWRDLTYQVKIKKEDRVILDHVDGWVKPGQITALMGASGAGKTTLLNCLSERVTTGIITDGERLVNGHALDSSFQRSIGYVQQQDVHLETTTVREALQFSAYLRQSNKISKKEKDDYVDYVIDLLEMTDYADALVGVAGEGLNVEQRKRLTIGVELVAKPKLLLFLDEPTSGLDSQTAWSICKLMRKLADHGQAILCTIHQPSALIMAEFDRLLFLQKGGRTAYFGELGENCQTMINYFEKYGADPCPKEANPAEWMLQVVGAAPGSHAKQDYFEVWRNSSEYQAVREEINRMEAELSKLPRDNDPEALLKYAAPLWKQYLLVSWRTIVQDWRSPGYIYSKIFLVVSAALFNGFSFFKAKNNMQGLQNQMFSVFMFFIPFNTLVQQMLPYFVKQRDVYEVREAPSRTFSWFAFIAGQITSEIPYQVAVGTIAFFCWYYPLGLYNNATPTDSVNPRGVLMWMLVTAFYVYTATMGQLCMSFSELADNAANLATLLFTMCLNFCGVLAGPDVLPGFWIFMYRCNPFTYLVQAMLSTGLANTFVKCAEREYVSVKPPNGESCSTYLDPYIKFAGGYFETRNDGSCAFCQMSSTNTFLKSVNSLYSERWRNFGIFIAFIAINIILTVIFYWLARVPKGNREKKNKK
T6 sequence (Q5ANA3 whole entry M639I): as above
T2 sequence (Q5ANA3 whole entry A713P): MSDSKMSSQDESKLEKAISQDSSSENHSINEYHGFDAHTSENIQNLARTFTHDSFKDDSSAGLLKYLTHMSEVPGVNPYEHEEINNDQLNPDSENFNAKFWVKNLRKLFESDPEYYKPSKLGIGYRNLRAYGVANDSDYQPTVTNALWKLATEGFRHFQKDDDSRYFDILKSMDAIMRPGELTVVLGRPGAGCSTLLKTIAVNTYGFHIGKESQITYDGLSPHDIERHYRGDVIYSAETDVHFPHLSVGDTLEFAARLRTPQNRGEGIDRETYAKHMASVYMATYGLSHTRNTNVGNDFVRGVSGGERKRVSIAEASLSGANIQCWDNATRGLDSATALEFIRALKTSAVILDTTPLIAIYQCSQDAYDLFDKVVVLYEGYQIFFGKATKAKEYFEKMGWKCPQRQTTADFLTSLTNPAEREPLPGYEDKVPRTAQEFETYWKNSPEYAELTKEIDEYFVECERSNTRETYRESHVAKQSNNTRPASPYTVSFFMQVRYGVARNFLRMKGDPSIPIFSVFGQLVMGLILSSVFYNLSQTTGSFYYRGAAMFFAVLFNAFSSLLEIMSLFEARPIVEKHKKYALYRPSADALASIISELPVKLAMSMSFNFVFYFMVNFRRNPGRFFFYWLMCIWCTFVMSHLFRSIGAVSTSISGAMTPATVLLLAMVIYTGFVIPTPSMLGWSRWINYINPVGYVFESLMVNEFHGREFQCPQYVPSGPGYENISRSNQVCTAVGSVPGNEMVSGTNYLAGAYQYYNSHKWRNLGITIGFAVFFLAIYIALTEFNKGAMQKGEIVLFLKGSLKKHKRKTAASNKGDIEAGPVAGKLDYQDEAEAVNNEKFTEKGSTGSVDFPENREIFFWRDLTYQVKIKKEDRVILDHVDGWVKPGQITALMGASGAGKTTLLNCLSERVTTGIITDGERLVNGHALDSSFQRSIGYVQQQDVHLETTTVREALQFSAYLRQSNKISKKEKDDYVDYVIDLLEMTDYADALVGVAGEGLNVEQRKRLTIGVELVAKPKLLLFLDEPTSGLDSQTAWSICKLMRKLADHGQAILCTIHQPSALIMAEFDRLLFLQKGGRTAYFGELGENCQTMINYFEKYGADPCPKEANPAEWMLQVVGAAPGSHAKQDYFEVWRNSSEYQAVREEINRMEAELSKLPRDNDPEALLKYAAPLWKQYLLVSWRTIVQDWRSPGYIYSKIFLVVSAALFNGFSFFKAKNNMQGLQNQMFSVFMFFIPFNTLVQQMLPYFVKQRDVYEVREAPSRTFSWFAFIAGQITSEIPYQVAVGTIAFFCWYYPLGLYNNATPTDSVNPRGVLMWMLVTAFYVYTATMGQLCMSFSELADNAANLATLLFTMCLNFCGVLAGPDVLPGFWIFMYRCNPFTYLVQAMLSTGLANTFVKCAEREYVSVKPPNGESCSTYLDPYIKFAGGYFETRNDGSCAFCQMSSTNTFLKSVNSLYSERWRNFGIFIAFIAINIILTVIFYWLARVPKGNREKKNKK

milbemycin α25 was tested, and the IC50 [1] was 30 µM, the IC50 [2] was greater than 30 µM and the “lowest inhibitor concentration necessary to achieve the lowest MICFLC” value (from here on “lowest inhibitor concentration necessary”) [3] was 2.5 µM. For the same compound, the “times more resistant than wt Cdr1 (IC50 of FLC efflux inhibition)” value [3] was 5 fold, the “lowest MICFLC in the presence of inhibitor” value (shortened to “lowest MICFLC … of inhibitor”) [3] was 5 mg/L and the IC50 [3, 13] was 0.4 µM. For the same compound, the IC50 [4] was 28 µM, the “lowest MICFLC … of inhibitor” value [5] was 20 (20) mg/L and the IC50 [5, 13] was 8 µM. The “lowest inhibitor concentration necessary” value [6] was 2.5 µM, the “times more resistant than wt Cdr1 (IC50 of FLC efflux inhibition)” value [6] was roughly 5 fold and the “lowest MICFLC … of inhibitor” value [6] was 5 mg/L. It also gave an IC50 [6, 13] of 0.4 µM.
For `CC[C@@]1([C@@H]2O[C@@H]([C@H]3O[C@@](O)(CO)[C@H](C)C[C@@H]3C)C[C@@H]2C)CC[C@H]([C@]2(C)CC[C@]3(C[C@H](O)[C@@H](C)[C@@H]([C@@H](C)[C@@H](OC)[C@H](C)C(=O)O)O3)O2)O1` [MON, monensin], the “Estimated IC50 for substrate inhibition of the ATPase activity” value (“Estimated IC50 for substrate inhibition” for short) [2] was “none” and the “Estimated IC50 for substrate inhibition” value ([4]; > = only partial inhibition, none = no reduction at highest concentration) was “none”.
In the case of `C=CC[C@@H]1/C=C(\C)C[C@H](C)C[C@H](OC)[C@H]2O[C@@](O)(C(=O)C(=O)N3CCCC[C@H]3C(=O)O[C@H](/C(C)=C/[C@@H]3CC[C@@H](O)[C@H](OC)C3)[C@H](C)[C@@H](O)CC1=O)[C@H](C)C[C@@H]2OC` [FK506], the “Vmax of ATPase activity in the presence of inhibitor” value (from here on “Vmax … of inhibitor”) ([1]; [I] 10 μM) is reported as 123 nmol/min/mg, the IC50 [7] is reported as 40 µM and the “type of inhibition of ATPase activity (Lineweaver-Burk)” value [2] is reported as “mixed inhibition”. The “Vmax … of inhibitor” value ([2]; [I] 1 μM) was 88 nmol/min/mg, the “Vmax … of inhibitor” value ([2]; [I] 10 μM) was 69 nmol/min/mg and the IC50 [8] was 2.5 µM. For the same compound, the “lowest inhibitor concentration necessary” value [3] was 80 (80) μM, the “times more resistant than wt Cdr1 (IC50 of FLC efflux inhibition)” value [3] was 16 fold and the “lowest MICFLC … of inhibitor” value [3] was 80 (80) mg/L. The IC50 [9] was 0.8 µM, the Ki [9] was 0.56 ± 0.07 µM and the Ki [10] was 11.9 ± 2.8 µM. For the same compound, the “Vmax … of inhibitor” value ([4]; [I] 1 μM) was 500 nmol/min/mg, the “Vmax … of inhibitor” value ([4]; [I] 10 μM) was 256 nmol/min/mg and the “lowest inhibitor concentration necessary” value [5] was 80 µM. The “lowest MICFLC … of inhibitor” value [5] was 40 mg/L, the IC50 [11] was 14.5 µM and the Ki [11] was 12.8 ± 4.53 µM. For the same compound, the “lowest inhibitor concentration necessary” value [6] was 40 µM, the “lowest MICFLC … of inhibitor” value [6] was 5 mg/L and the IC50 [12] was 40 µM.
Work on `CC/N=c1\cc2oc3cc(NCC)c(C)cc3c(-c3ccccc3C(=O)OCC)c-2cc1C` [R6G, rhodamine 6G] yielded an IC50 [10] greater than 64 µM and an IC50 [11] of 32 µM.
In the case of `CCC(C)n1ncn(-c2ccc(N3CCN(c4ccc(OCC5COC(Cn6cncn6)(c6ccc(Cl)cc6Cl)O5)cc4)CC3)cc2)c1=O` (stereo not shown) [ITC, itraconazole], the “Estimated IC50 for substrate inhibition” value [2] is reported as “none” and the IC50 [11] is reported as greater than 32 µM.
For `[O]=[V]([O-])([O-])[O-]` [Vanadate, vanadate], the “Vmax … of inhibitor” value ([1]; [I] 0.5 μM) was 149 nmol/min/mg, the “Vmax … of inhibitor” value ([1]; [I] 2 μM) was 86 nmol/min/mg and the IC50 [1] was 1.8 µM. For the same compound, the Ki [1, 14] was 1.93 ± 0.13 µM, the “type of inhibition of ATPase activity (Lineweaver-Burk)” value [2] was “uncompetitive inhibitor” and the “Vmax … of inhibitor” value ([2]; [I] 0.2 μM) was 65 nmol/min/mg. For the same compound, the “Vmax … of inhibitor” value ([2]; [I] 0.5 μM) was 42 nmol/min/mg, the IC50 [2] was 0.26 µM and the Ki [2, 14] was 0.07 ± 0.01 µM. For the same compound, the “Vmax … of inhibitor” value ([4]; [I] 10 μM) was 333 nmol/min/mg, the “Vmax … of inhibitor” value ([4]; [I] 20 μM) was 270 nmol/min/mg and the IC50 [4] was greater than 20 µM. It also gave a Ki [4, 14] of 20.8 ± 0.76 µM.
`OC(Cn1cncn1)(Cn1cncn1)c1ccc(F)cc1F` [FLC, fluconazole] showed an MICFLC ([3]; no inhibitor) of 320 mg/L, an MICFLC ([5]; no inhibitor) of 160 mg/L and an MICFLC ([6]; no inhibitor) of 640 mg/L.
`CC(=O)N1CCN(c2ccc(OCC3COC(Cn4ccnc4)(c4ccc(Cl)cc4Cl)O3)cc2)CC1` (stereo not shown) [KTC, ketoconazole] was tested, and the IC50 [10] was 100 µM and ~100 µM and the IC50 [11] was greater than 1000 µM.
